Reference: PubChem BioAssay AID504339 (National Center for Advancing Translational Sciences (NCATS), 2011)
“And” between values parts separate entries of the source, which are not always exact repeats. Equal entries are not always repeated. Out of some 390,000 compounds screened, about 17,000 (4.4%) were called active. This list was built around the results that the source calls inconclusive (neither active nor inactive); the mix of calls is not that of the screen. Calls come from the whole dose curve; as a rule, active = well fitted inhibition curve with a large enough effect; inconclusive = small, poorly fitted or top-dose-only effect; inactive = no such curve, though single readings can be large or run the other way. A potency beside an inconclusive call is a rough fit, not a confirmed value.

These compounds were tested against Lysine-specific demethylase 4A (Homo sapiens) (UniProt O75164) (assay: qHTS Assay for Inhibitors of JMJD2A-Tudor Domain). Settings: AlphaScreen JMJD2A-Tudor / H3K4me3 peptide binding; series mostly up to 114 µM.
UniProt O75164, sequence (O75164 whole entry, looked up, the tested form may be a part): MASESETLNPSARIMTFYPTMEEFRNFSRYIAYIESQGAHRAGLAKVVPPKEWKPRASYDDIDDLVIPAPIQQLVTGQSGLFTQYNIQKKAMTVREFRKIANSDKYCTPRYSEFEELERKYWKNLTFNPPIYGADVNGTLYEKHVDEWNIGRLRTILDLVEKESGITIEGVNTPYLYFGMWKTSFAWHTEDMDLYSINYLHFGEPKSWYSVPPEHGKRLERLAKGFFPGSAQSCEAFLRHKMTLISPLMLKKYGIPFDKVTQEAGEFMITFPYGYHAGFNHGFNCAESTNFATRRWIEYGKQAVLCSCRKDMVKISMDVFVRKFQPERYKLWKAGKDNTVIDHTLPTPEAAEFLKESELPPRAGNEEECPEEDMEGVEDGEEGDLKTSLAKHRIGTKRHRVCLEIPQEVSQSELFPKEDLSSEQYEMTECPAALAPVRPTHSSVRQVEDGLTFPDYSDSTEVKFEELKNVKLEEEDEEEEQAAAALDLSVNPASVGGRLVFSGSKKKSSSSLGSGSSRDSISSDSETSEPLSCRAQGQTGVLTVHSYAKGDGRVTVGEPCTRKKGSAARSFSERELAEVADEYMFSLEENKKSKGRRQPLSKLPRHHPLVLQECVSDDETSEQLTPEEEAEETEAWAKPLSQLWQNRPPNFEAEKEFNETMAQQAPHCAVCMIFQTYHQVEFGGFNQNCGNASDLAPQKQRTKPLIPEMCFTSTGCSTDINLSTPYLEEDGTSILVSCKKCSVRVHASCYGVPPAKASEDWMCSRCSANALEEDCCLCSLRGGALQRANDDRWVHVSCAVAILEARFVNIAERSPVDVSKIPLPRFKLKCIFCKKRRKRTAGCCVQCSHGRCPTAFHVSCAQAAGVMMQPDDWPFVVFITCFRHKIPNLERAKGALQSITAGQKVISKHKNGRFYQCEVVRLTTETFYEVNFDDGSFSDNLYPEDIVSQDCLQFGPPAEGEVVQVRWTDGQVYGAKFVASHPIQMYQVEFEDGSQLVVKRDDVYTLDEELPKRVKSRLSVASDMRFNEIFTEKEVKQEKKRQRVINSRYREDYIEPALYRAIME
Note: nearly all actives have a fitted effect of over 50% in size.
Potency is the fitted concentration of half-maximal effect; tags give direction and shape of the fitted curve.

Potency, inconclusive:
O=C(NCCc1ccco1)c1nn(Cc2ccccc2)c(=O)c2ccccc12 50.1 µM [inhibitor, partial curve]
Oc1ccc(C[C@H]2CNCCN2CCc2cc(C(F)(F)F)cc(C(F)(F)F)c2)cc1 89.1 µM [inhibitor, partial curve]
COc1cc(OC)c2c(-c3ccccc3)cc(=O)oc2c1C(CC(=O)N1CCCC1)c1ccc2c(c1)OCO2 (centres undefined) 39.8 µM [inhibitor, partial curve] and 44.7 µM [inhibitor, partial curve]
O=c1c2ccccc2c(/C=N/n2cnnc2)c(O)n1-c1ccccc1F 79.4 µM [inhibitor, single point]
O=[N+]([O-])c1ccc(N2CCN(c3ccccc3F)CC2)c(S(=O)(=O)N2CCOCC2)c1 3.98 µM [inhibitor, full curve, poor fit]
COc1ccc(SCC(Cc2ccccc2)N2CCN(CCc3ccccc3)CCC2=O)cc1 (centres undefined) 50.1 µM [inhibitor, partial curve]
Cn1c(CNc2nc3ccccc3n2CCN2CCCCC2)nc2ccccc21 79.4 µM [inhibitor, single point]
CCCn1c(NC(=S)Nc2ccccc2)nc2ccccc21 31.6 µM [inhibitor, single point]
C/C(CCC(C)C)=N\Nc1ccc(S(N)(=O)=O)cc1[N+](=O)[O-] 44.7 µM [inhibitor, partial curve]
S=c1[nH]nc(-c2cc(-c3ccsc3)n[nH]2)n1-c1cccc2ccccc12 50.1 µM [inhibitor, partial curve]
O=C(O)c1ccc2c3c(ncnc13)-c1ccccc1C2=O 17.8 µM [inhibitor, partial curve, poor fit]
COC(=O)/C=C1/S/C(=N/NC(=O)c2ccccc2C)NC1=O 100 µM [inhibitor, single point]
COc1ccc2nc(SCC(=O)c3ccco3)[nH]c2c1 89.1 µM [inhibitor, single point]
CC/C(=N\NC(=S)Nc1cc(C)ccc1C)c1ccc(OC(F)F)cc1 50.1 µM [inhibitor, single point]
Cc1ccsc1CNc1ncnc2ccc(-c3ccc4c(c3)OCO4)cc12 56.2 µM [inhibitor, partial curve]
CCN(CC)c1ccc(NC(=O)CN2CCN(c3ccccn3)CC2)cc1 63.1 µM [inhibitor, partial curve]
N#CC1=C(N)N(c2ccccc2Sc2ccccc2)C(=O)C1 89.1 µM [inhibitor, single point]
O=[N+]([O-])CC(=Nc1ccc(Cl)cc1)N/N=C\c1oc(O)c2ccccc12 56.2 µM [inhibitor, partial curve]
O=C(NCCCN1CCCC1=O)C1CCN(S(=O)(=O)N2CCOCC2)CC1 79.4 µM [inhibitor, partial curve]
Cc1cc(S(=O)(=O)Nc2ccc(O)c(Sc3nc4ccccc4s3)c2)ccc1Cl 50.1 µM [inhibitor, partial curve]
CCOc1ccccc1NC(=S)N(CCCN1CCOCC1)Cc1cn(C)c2ccccc12 89.1 µM [inhibitor, partial curve]
CN(C)c1ccc(C(CNS(=O)(=O)c2ccc(F)cc2F)N2CCOCC2)cc1 (centres undefined) 89.1 µM [inhibitor, partial curve]
C/C(CC(=O)NCc1ccccc1)=N\NC(=O)c1cnccn1 2.82 µM [inhibitor, full curve]
CC(=Nc1ccccc1O)c1sc2ccccc2c1O 15.8 µM [inhibitor, full curve, poor fit]
Cc1cccc(NC(=S)N2CCC(c3nc4ccccc4s3)CC2)c1 35.5 µM [inhibitor, full curve, poor fit]
COCCn1c(=O)[nH]c(=O)c2cc(C(=O)c3cc(Cl)ccc3O)cnc21 56.2 µM [inhibitor, partial curve]
COc1ccccc1Nc1c2c(nc3ccc(NC(=O)c4cccc(F)c4)cc13)CCCC2 14.1 µM [inhibitor, full curve]
O=C(c1cc(-c2ccccc2)on1)N1CCN(Cc2ccc3c(c2)OCO3)CC1 50.1 µM [inhibitor, partial curve]
CC12CCC(C(=O)NCc3ccccn3)(OC1=O)C2(C)C (centres undefined) 28.2 µM [inhibitor, full curve]
Cn1cc(/C=C2\SC(=O)N(c3ccc(O)cc3)C2=O)c2ccccc21 56.2 µM [inhibitor, partial curve, poor fit]
COc1ccc(NC(=O)c2cc(-c3ccccc3O)no2)cc1 39.8 µM [inhibitor, partial curve]
Cc1csc(NC(=O)CSc2nnc(-c3ccoc3C)n2Cc2ccco2)n1 79.4 µM [inhibitor, single point]
Cc1ccc(NC(=O)CN2C(=O)CCc3cc(S(=O)(=O)N4CCCCC4)ccc32)cc1N(C)C 70.8 µM [inhibitor, partial curve]
C#Cc1ccc([C@@H]2C=C(C(=O)N3CCN(Cc4ccc5c(c4)OCO5)CC3)O[C@H](OCC)[C@H]2CCCO)cc1 89.1 µM [inhibitor, single point]
Cc1ccc2oc(Nc3nc(-c4ccccc4)cc(=O)[nH]3)nc2c1 89.1 µM [inhibitor, partial curve]
COCCCn1c(O)c(/C=C2\N=C(C#N)C(=Nc3ccc(C)cc3)O2)sc1=S 28.2 µM [inhibitor, full curve]
COC(=O)c1ccc(/C=C2\CCn3c2nc2cc(C(=O)O)ccc2c3=O)cc1 50.1 µM [inhibitor, partial curve, poor fit]
CC(OC(=O)CCCc1c[nH]c2ccccc12)C(=O)Nc1ccc(S(N)(=O)=O)cc1 (centres undefined) 22.4 µM [inhibitor, full curve, poor fit]
C=Cc1ccc(C(=O)N2CCCC(Nc3ccc4c(c3)OCCO4)C2)cc1 (centres undefined) 44.7 µM [inhibitor, partial curve]
O=C(C1CCC1)N1CCN(c2ccc(C(F)(F)F)cc2[N+](=O)[O-])CC1 70.8 µM [inhibitor, single point]
CCc1cc(C(=O)N=Nc2c(O)[nH]c3c(Br)cc(Br)cc23)c2ccccc2n1 44.7 µM [inhibitor, partial curve]
CCc1nc(Nc2ccccc2O)c2oc3ccccc3c2n1 20 µM [inhibitor, partial curve]

Potency, inactive:
Cc1ccccc1C=O
CCCn1c(NC(=O)CN2C(=O)NC3(CCCCC3)C2=O)nc2ccccc21
O=C(CSC1=NS(=O)(=O)c2ccccc2N1)NCc1ccc(F)cc1
Cn1nc(C(=O)NCCc2ccc(Cl)cc2)c2c1-c1ccccc1SC2
Cc1ccc(C)c(NC(=O)c2ncn[nH]2)c1
Cc1cc(Cl)c(S(=O)(=O)NC2CCCC2)cc1OCC(N)=O
COc1ccc(CNc2nc(NCc3ccc(OC)cc3)n(S(C)(=O)=O)n2)cc1
CC(=O)c1cccc(Nc2nc(-c3ccccc3)nc3ccccc23)c1
CCCCn1c(-c2cccnc2)nc2cc3[nH]c(=O)c(C(C)C)nc3cc21
O=C1CCCC/C1=C\Nc1ccc(S(=O)(=O)Nc2cnc3ccccc3n2)cc1
COc1ccc(-c2csc(N=C(N)N)n2)cc1
C=CCNC(=O)/C(=C/c1ccco1)NC(=O)c1ccc(Br)o1
N#CC1(NC(=O)COC(=O)CCCN=C2NS(=O)(=O)c3ccccc32)CCCCC1
C#CCOCCOCCOCCNc1nc(N2CCN(C(=O)Cn3cc(CCO)nn3)CC2)nc(N2CCN(C(=O)Cn3cc(CC(C)O)nn3)CC2)n1 (centres undefined)
COc1cccc(NC(=O)C2CC(=O)OC23CCOC(C)(C)C3)c1 (centres undefined)
CCC(C)N(C(=O)COC(=O)c1ccc(=O)n(Cc2ccccc2)n1)C1CCS(=O)(=O)C1 (centres undefined)
Nc1nc(N)c(N=Nc2ccc(C(=O)O)cc2)c(N)n1
O=C(NCC1COc2ccccc2O1)c1cc(S(=O)(=O)N2CCOCC2)ccc1F (centres undefined)

Potency, active:
CCCC(C)c1nnc(NC(=O)C(=O)OCC)s1 (centres undefined) 17.8 µM
O=[N+]([O-])c1ccc(O)c(/C=N/NC2=NS(=O)(=O)c3ccccc32)c1 20 µM
C[C@H](NC(=O)c1nc[nH]c1C(=O)N1CCNCC1)C(=O)OCc1ccccc1 35.5 µM
Nc1c(C(=O)c2ccccc2)sc2nsc(SCCN3CCCC3)c12 79.4 µM
CCOc1ccc(OCCCCN2CCCC2)cc1 44.7 µM
Oc1ccc(CNc2ccc(F)cc2F)c2cccnc12 20 µM
Cc1ccc(-c2csc(NC(=O)c3cccc(N4C(=O)CCC4=O)c3)n2)o1 79.4 µM
COc1ccc(Br)cc1C1NC(c2ccc3c(c2)OCO3)=CC(c2cc(Cl)ccc2O)N1 (centres undefined) 89.1 µM
Cc1cc(C)c(OCCOCCN(C)C)c(Br)c1 25.1 µM
